Patent publication US20230038638A1
Values belong to the binder of their own block, whether it stands above or below them.

Assays:
human C4b (human) = target: T1, human C4b (human) (UniProt P0C0L4)
T1 sequence: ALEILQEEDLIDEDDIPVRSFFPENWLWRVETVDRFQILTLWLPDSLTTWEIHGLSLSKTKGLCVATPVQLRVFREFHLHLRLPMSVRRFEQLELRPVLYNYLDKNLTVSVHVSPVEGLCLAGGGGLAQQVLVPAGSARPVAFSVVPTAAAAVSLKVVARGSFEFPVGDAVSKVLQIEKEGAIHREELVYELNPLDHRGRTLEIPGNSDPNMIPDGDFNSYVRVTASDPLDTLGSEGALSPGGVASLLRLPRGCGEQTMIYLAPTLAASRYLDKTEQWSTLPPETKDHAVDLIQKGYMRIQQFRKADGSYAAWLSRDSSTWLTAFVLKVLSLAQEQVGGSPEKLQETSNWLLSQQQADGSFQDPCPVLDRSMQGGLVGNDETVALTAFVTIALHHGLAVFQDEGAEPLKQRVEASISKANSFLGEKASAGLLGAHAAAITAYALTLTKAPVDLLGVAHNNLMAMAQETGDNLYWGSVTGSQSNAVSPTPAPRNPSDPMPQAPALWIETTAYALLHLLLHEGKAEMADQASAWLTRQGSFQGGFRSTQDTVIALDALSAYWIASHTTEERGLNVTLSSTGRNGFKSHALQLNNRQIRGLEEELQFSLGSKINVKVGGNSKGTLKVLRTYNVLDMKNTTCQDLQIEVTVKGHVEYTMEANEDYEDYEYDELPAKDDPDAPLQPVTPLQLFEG

[1] = target: soluble human C3b (human) (UniProt P01024)

C4c EC50 (human C4b (human)): 825 nM
iC3b EC50 [1]: > 500 nM
B1: CFI-HSA variant ΔC-term (Δ557-… (SEQ ID NO: 27)-565) (enzyme)
chain: [in this place about 600 residues]GGSSGGKVTYTSQEDLVEKKCLAKKYTHLSCDKVFCQPWQRCIEGTCVCKLPYQCPKNGTAVCATNRRSFPTYCQQKSLECLHPGTKFLNNGTCTAEGKFSVSLKHGNTDSEGIVEVKLVDQDKTMFICKSSWSMREANVACLDLGFQQGADTQRRFKLSDLSINSTECLHVHCRGLETSLAECTFTKRRTMGYQDFADVVCYTQKADSPMDDFFQCVNGKYISQMKACDGINDCGDQSDELCCKACQGKGFHCKSGVCIPSQYQCNGEVDCITGEDEVGCAGFASVTQEETEILTADMDAERRRIKSLLPKLSCGVKNRMHIRRKRIVGGKRAQLGDLPWQVAIKDASGITCGGIYIGGCWILTAAHCLRASKTHRYQIWTTVVDWIHPDLKRIVIEYVDRIIFHENYNAGTYQNDIALIEMKKDGNKKDCELPRSIPACVPWSPYLFQPNDTCIVSGWGREKDNERVFSLQWGEVKLISNCSKFYGNRFYEKEMECAGTYDGSIDACKGDSGGPLVCMDANNVTYVWGVVSWGENCGKPEFPGVYTKVANYFDWISYHVG

C4c EC50 (human C4b (human)): 44.1 nM
B2: CFI-HSA variant Y408L; N531G; … (SEQ ID NO: 26); CCP_1-4 (enzyme)
chain: [in this place about 600 residues]GGSSGGKVTYTSQEDLVEKKCLAKKYTHLSCDKVFCQPWQRCIEGTCVCKLPYQCPKNGTAVCATNRRSFPTYCQQKSLECLHPGTKFLNNGTCTAEGKFSVSLKHGNTDSEGIVEVKLVDQDKTMFICKSSWSMREANVACLDLGFQQGADTQRRFKLSDLSINSTECLHVHCRGLETSLAECTFTKRRTMGYQDFADVVCYTQKADSPMDDFFQCVNGKYISQMKACDGINDCGDQSDELCCKACQGKGFHCKSGVCIPSQYQCNGEVDCITGEDEVGCAGFASVTQEETEILTADMDAERRRIKSLLPKLSCGVKNRMHIRRKRIVGGKRAQLGDLPWQVAIKDASGITCGGIYIGGCWILTAAHCLRASKTHRYQIWTTVVDWIHPDLKRIVIEYVDRIIFHENYNAGTLQNDIALIEMKKDGNKKDCELPRSIPACVPWSPYLFQPNDTCIVSGWGREKDNERVFSLQWGEVKLISNCSKFYGNRFYEKEMECAGTYDGSIDACKGDSGGPLVCMDANNVTYVWGVVSWGEGCGKPEFPGVYTKVANYFDWISYHVGRPFISQYNVGGSSGGSSGGEDCNELPPRRNTEILTGSWSDQTYPEGTQAIYKCRPGYRSLGNVIMVCRKGEWVALNPLRKCQKRPCGHPGDTPFGTFTLTGGNVFEYGVKAVYTCNEGYQLLGEINYRECDTDGWTNDIPICEVVKCLPVTAPENGKIVSSAMEPDREYHFGQAVRFVCNSGYKIEGDEEMHCSDDGFWSKEKPKCVEISCKSPDVINGSPISQKIIYKENERFQYKCNMGYEYSERGDAVCTESGWRPLPSCEE
